Source: the supplement of paper PMC3334620
Whole data set: some 33,000 sequences, median “E-score (-0.5 to 0.5)” near -0.021, cut for the highest 2% near 0.32. This is one part of the list.

The sequences below were run against T1, Zap1 (UniProt P47043) (assay: PBM E-score (8-mer binding enrichment) (E-score (-0.5 to 0.5)); higher = stronger / more preferred TF binding; most listed sequences are background and not binding sites). Details: protein concentration: 200 nM; construct: GST-full length.
T1 sequence: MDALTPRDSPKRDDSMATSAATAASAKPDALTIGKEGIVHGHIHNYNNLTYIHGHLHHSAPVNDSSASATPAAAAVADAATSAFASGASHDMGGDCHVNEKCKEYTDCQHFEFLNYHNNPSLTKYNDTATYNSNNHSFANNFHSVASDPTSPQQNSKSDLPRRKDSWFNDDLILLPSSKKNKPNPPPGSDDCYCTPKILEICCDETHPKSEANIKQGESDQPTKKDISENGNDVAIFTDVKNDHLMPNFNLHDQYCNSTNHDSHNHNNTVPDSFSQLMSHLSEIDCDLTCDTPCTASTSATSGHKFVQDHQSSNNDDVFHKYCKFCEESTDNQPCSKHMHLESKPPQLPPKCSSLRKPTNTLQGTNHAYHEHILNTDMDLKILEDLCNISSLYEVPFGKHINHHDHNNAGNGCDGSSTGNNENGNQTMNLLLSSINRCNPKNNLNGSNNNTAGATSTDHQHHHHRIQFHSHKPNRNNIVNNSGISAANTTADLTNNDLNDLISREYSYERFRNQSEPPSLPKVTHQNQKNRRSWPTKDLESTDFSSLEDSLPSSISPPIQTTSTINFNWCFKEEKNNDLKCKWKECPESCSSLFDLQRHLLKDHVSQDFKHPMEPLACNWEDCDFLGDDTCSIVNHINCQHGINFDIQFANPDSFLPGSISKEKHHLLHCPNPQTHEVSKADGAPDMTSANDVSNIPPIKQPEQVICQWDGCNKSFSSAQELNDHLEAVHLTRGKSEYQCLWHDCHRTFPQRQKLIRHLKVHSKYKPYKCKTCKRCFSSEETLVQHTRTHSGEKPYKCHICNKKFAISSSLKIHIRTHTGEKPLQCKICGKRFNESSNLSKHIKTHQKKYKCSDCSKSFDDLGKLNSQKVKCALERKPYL
In short: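 PURExpress in vitro transcription/translation supplied GST-tagged yeast transcription factors, either full-length or DNA-binding domain. Applied at about 100-200 nM to universal all-10-mer Agilent arrays double-stranded by primer extension, the bound protein was detected with fluorescent anti-GST. E-scores, modified Wilcoxon-Mann-Whitney statistics, were given by the Universal PBM Analysis Suite to ungapped eight-base words pooled with their reverse complements after masliner normalisation.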

Row | Sequence | PBM E-score
1 | AAGGCGAC | -0.264
2 | CGTTGTGC | -0.0934
3 | ACGGCAGT | -0.163
4 | CAGCTGAC | -0.0319
5 | CACACTCG | -0.221
6 | GCAGGAGC | -0.119
7 | CACGTCGC | -0.229
8 | ATCCACAA | 0.0252
9 | ATTCCTTC | -0.0773
10 | GAGATATA | 0.0432
11 | ACGAATAC | 0.0278
12 | AGTTGTGA | 0.193
13 | AATACGGC | 0.191
14 | GGAAACAA | 0.0476
15 | ACACCATG | -0.0267
16 | CCAAACAA | 0.246
17 | ATTATTGC | 0.0913
18 | CCGCCCGC | -0.0378
19 | CCTTGTAA | 0.212
20 | AAGCCTCG | -0.154
21 | GATCAGAC | -0.114
22 | TAGATTAA | 0.247
23 | CGGCTGTC | -0.163
24 | ACACTAAT | 0.052

Row | Sequence | PBM E-score
25 | CAATCAAA | 0.054
26 | AACAATCC | 0.16
27 | CCCCTGTA | 0.02
28 | AGACTCTA | -0.29
29 | CCCGGCTC | -0.152
30 | CCTTCGAA | 0.0979
31 | CGAGCGTC | -0.0149
32 | CTTGTGGC | 0.0412
33 | ATTATAAT | 0.239
34 | GTACGTTA | 0.0459
35 | ACCTCCGT | 0.11
36 | CACTTAAC | 0.054
37 | ACAATCAG | 0.0621
38 | CACGGCAC | 0.00027
39 | GGGTCTTA | 0.168
40 | ACCAACTC | 0.115
41 | ACGCCAGT | -0.225
42 | CTTATACC | 0.106
43 | AGTCTAAA | 0.0205
44 | CCAGAAAC | 0.19
45 | GGGGCCCC | 0.262
46 | CTTCCGAC | -0.098
47 | GTTTCGTA | 0.226
48 | AAGTTGCA | -0.16

Row | Sequence | PBM E-score
49 | AAGCGGCA | -0.0214
50 | GAAGCAAA | -0.0942
51 | CGGGGCGA | -0.146
52 | AGTACGAT | 0.0149
53 | CAGTAGGC | -0.304
54 | AACCCAAG | 0.346
55 | GTTATATA | 0.359
56 | CCGCGCGA | 0.124
57 | TGTACGAA | 0.108
58 | ATCAACTC | -0.0779
59 | CTCGAGAC | 0.142
60 | CAAGCTGA | -0.0332
61 | CCCTGTGC | 0.0717
62 | GATGTTGA | -0.118
63 | CTTCCTTA | -0.0781
64 | GGGGTTTA | 0.126
65 | AAGGGGCA | -0.142
66 | ACCCTACT | 0.329
67 | CAAATCTC | -0.0633
68 | CTGATCTC | -0.106
69 | GCACAACC | 0.199
70 | ATTATGGA | 0.126
71 | AAATGGGT | 0.265
72 | CAGTTGCC | -0.139

Row | Sequence | PBM E-score
73 | GAAACGCC | -0.199
74 | AGTTTCGG | 0.145
75 | TGCAGCAA | 0.0389
76 | AGACAGGA | 0.0939
77 | CCGGGGGA | -0.089
78 | GAGGCATC | -0.275
79 | ATCGCTGC | -0.0832
80 | ATGCAATG | -0.05
81 | ATGAGCCC | -0.192
82 | GCGTTGGA | -0.205
83 | CCAGCCTC | -0.145
84 | CATTATAC | 0.127
85 | CTCATTCA | 0.0628
86 | CTTAAGAA | 0.0985
87 | AAACGGAC | -0.0663
88 | GAGCCTGC | -0.396
89 | CCAAGTCC | -0.131
90 | TCATGTCA | 0.134
91 | AAGGCGCC | -0.125
92 | TAAAGCCA | 0.00455
93 | CTGGGATC | -0.183
94 | CAGAATAG | 0.106
